# Measurements: the supplement of paper PMC10037445
# “And” between values parts separate entries of the source, which are not always exact repeats. Equal values may be shown once. In all, about 2,900 compounds were measured (“IRF Lucia reporter activity, fold change vs agonist alone”: median about 0.9, highest 2% from about 2.8 on). The list shows a part of the results.
# How the values were obtained:
# RAW-Dual [1] = test: IRF Lucia reporter activity, fold change vs agonist alone; cytotoxicity flag (confluency mask): not cytotoxic; higher = enhanced IRF activity
# Outline: (§1)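 Cytotoxic wells were those whose IncuCyte confluency was below 70% of agonist controls in both mask sets. The cells were RAW-Dual macrophages at 50,000 cells/well in DMEM on 384-well plates, dosed with 50 nL of library stock by pin tool, stimulated with a PRR agonist 1 h later, and kept at 37 °C, 5% CO2 for 20 hours. IRF and NF-κB reporter activity, as fold change over agonist-alone wells, came from supernatant read by QuantiLuc luminescence and QuantiBlue absorbance, respectively.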
# RAW-Dual [2] = test: IRF Lucia reporter activity, fold change vs agonist alone; higher = enhanced IRF activity; settings: cytotoxicity flag (confluency mask): not cytotoxic, agonist: MPLA (TLR4) […]
# Outline: as §1
# RAW-Dual [3] = test: IRF Lucia reporter activity, fold change vs agonist alone; cytotoxicity flag (confluency mask): cytotoxic (confluency <70% of control); higher = enhanced IRF activity
# Outline: as §1
# [4] = agonist: 3'3'-cGAMP (STING) 10 ug/mL
# [5] = library stock concentration (final ~1000-fold dilution): 10 mM
smiles,measurement,setting,value
Nc1nonc1/C(=N\O)Nc1ccc(F)c(Cl)c1 (library stock concentration (final ~1000-fold dilution): 10 mM),IRF Lucia reporter activity,RAW-Dual [1]; [4],0.359
same,IRF Lucia reporter activity,RAW-Dual [1]; agonist: LPS (TLR4) 0.1 ug/mL,1.06
CCN1CCN(Cc2ccc(-c3cc4c(NC(C)c5ccccc5)ncnc4[nH]3)cc2)CC1 (centres undefined) (library stock concentration (final ~1000-fold dilution): 10 mM),IRF Lucia reporter activity,RAW-Dual [1]; [4],0.302
same,IRF Lucia reporter activity,RAW-Dual [1]; agonist: LPS (TLR4) 0.1 ug/mL,0.362
CCN1CCN(Cc2ccc(-c3cc4c(NC(C)c5ccccc5)ncnc4[nH]3)cc2)CC1 (centres undefined),IRF Lucia reporter activity,RAW-Dual [2]; [5],0.506
CN(CCNCc1cn(Cc2ccc(Cl)cc2)nn1)CCNc1ccnc2cc(Cl)ccc12.O=C(O)C(F)(F)F (library stock concentration (final ~1000-fold dilution): 10 mM),IRF Lucia reporter activity,RAW-Dual [3]; [4],1.05
same,IRF Lucia reporter activity,RAW-Dual [3]; agonist: LPS (TLR4) 0.1 ug/mL,1.37
COc1cc2c(OC3OC(CO)C4OC(C)(C)OC4C3O)c3c(c(-c4ccc5c(c4)OCO5)c2cc1OC)C(=O)OC3 (centres undefined) (library stock concentration (final ~1000-fold dilution): 10 mM),IRF Lucia reporter activity,RAW-Dual [1]; [4],0.0793
same,IRF Lucia reporter activity,RAW-Dual [1]; agonist: LPS (TLR4) 0.1 ug/mL,1.2
CC(=O)Oc1cc2c(s1)CCN(C(C(=O)C1CC1)c1ccccc1F)C2 (centres undefined),IRF Lucia reporter activity,RAW-Dual [2]; [5],0.38
CC(=O)Oc1cc2c(s1)CCN(C(C(=O)C1CC1)c1ccccc1F)C2 (centres undefined) (library stock concentration (final ~1000-fold dilution): 10 mM),IRF Lucia reporter activity,RAW-Dual [1]; [4],0.287
same,IRF Lucia reporter activity,RAW-Dual [1]; agonist: LPS (TLR4) 0.1 ug/mL,0.693
CC(C)C(=O)Nc1ccc([N+](=O)[O-])c(C(F)(F)F)c1,IRF Lucia reporter activity,RAW-Dual [2]; [5],0.911
CC(C)C(=O)Nc1ccc([N+](=O)[O-])c(C(F)(F)F)c1 (library stock concentration (final ~1000-fold dilution): 10 mM),IRF Lucia reporter activity,RAW-Dual [1]; [4],0.768
same,IRF Lucia reporter activity,RAW-Dual [1]; agonist: LPS (TLR4) 0.1 ug/mL,0.998
COc1ccc2nc([S+]([O-])Cc3ncc(C)c(OC)c3C)[nH]c2c1 (centres undefined) (library stock concentration (final ~1000-fold dilution): 10 mM),IRF Lucia reporter activity,RAW-Dual [1]; [4],0.948 and 0.888
same,IRF Lucia reporter activity,RAW-Dual [1]; agonist: LPS (TLR4) 0.1 ug/mL,0.903 and 0.88
CCCCCCCCCCCCCCCC(=O)OC1C(SC)OC(C(NC(=O)C2CC(CCC)CN2C)C(C)Cl)C(O)C1O.Cl (centres undefined) (library stock concentration (final ~1000-fold dilution): 10 mM),IRF Lucia reporter activity,RAW-Dual [1]; [4],1.11
same,IRF Lucia reporter activity,RAW-Dual [1]; agonist: LPS (TLR4) 0.1 ug/mL,1.12
CCCCCCCCCCCCCCCC(=O)OC1C(SC)OC(C(NC(=O)C2CC(CCC)CN2C)C(C)Cl)C(O)C1O.Cl (centres undefined),IRF Lucia reporter activity,RAW-Dual [2]; [5],1.33
Cn1c(=O)c2[nH]cnc2n(C)c1=O.Cn1c(=O)c2[nH]cnc2n(C)c1=O.NCCN (library stock concentration (final ~1000-fold dilution): 10 mM),IRF Lucia reporter activity,RAW-Dual [1]; [4],0.887
same,IRF Lucia reporter activity,RAW-Dual [1]; agonist: LPS (TLR4) 0.1 ug/mL,0.778
Cn1c(=O)c2[nH]cnc2n(C)c1=O.Cn1c(=O)c2[nH]cnc2n(C)c1=O.NCCN,IRF Lucia reporter activity,RAW-Dual [2]; [5],0.67
CC(=O)Oc1ccccc1C(=O)O.CC(=O)Oc1ccccc1C(=O)O.NC(N)=O (library stock concentration (final ~1000-fold dilution): 10 mM),IRF Lucia reporter activity,RAW-Dual [1]; [4],1.05
same,IRF Lucia reporter activity,RAW-Dual [1]; agonist: LPS (TLR4) 0.1 ug/mL,1.2
CC(=O)Oc1ccccc1C(=O)O.CC(=O)Oc1ccccc1C(=O)O.NC(N)=O,IRF Lucia reporter activity,RAW-Dual [2]; [5],1.01
COc1cc2nccc(Oc3ccc(NC(=O)C4(C(=O)Nc5ccc(F)cc5)CC4)cc3)c2cc1OC.O=C(O)CC(O)C(=O)O,IRF Lucia reporter activity,RAW-Dual [2]; [5],0.572
COc1cc2nccc(Oc3ccc(NC(=O)C4(C(=O)Nc5ccc(F)cc5)CC4)cc3)c2cc1OC.O=C(O)CC(O)C(=O)O (library stock concentration (final ~1000-fold dilution): 10 mM),IRF Lucia reporter activity,RAW-Dual [1]; [4],0.054
same,IRF Lucia reporter activity,RAW-Dual [1]; agonist: LPS (TLR4) 0.1 ug/mL,0.507
Cl.Cl.O=S(=O)(NCCNC/C=C/c1ccc(Br)cc1)c1cccc2cnccc12 (library stock concentration (final ~1000-fold dilution): 10 mM),IRF Lucia reporter activity,RAW-Dual [1]; [4],0.867
same,IRF Lucia reporter activity,RAW-Dual [1]; agonist: LPS (TLR4) 0.1 ug/mL,0.926
Cl.Cl.O=S(=O)(NCCNC/C=C/c1ccc(Br)cc1)c1cccc2cnccc12,IRF Lucia reporter activity,RAW-Dual [2]; [5],1.34
O=C(O)CSCC(=O)NC1CCSC1=O (centres undefined) (library stock concentration (final ~1000-fold dilution): 10 mM),IRF Lucia reporter activity,RAW-Dual [1]; [4],1.03
same,IRF Lucia reporter activity,RAW-Dual [1]; agonist: LPS (TLR4) 0.1 ug/mL,1.21
CC(C)(C)Cn1c(N)nc2ccc(-c3[nH]c(C(C)(C)C)nc3-c3ccc(F)cc3)nc21.CS(=O)(=O)O.CS(=O)(=O)O,IRF Lucia reporter activity,RAW-Dual [2]; library stock concentration (final ~1000-fold dilution): 10 mM water,1.32
CC(C)(C)Cn1c(N)nc2ccc(-c3[nH]c(C(C)(C)C)nc3-c3ccc(F)cc3)nc21.CS(=O)(=O)O.CS(=O)(=O)O (library stock concentration (final ~1000-fold dilution): 10 mM water),IRF Lucia reporter activity,RAW-Dual [1]; [4],0.962
same,IRF Lucia reporter activity,RAW-Dual [1]; agonist: LPS (TLR4) 0.1 ug/mL,0.696
COc1ccccc1C(=O)Nc1cc2c(cc1N1CCNCC1C)n(C)c(=O)n2C (centres undefined) (library stock concentration (final ~1000-fold dilution): 10 mM),IRF Lucia reporter activity,RAW-Dual [1]; [4],0.61
same,IRF Lucia reporter activity,RAW-Dual [1]; agonist: LPS (TLR4) 0.1 ug/mL,0.729
